Consider 16 molecules from US20210388082A1 (NEWBIO THERAPEUTICS, published 2021).

Where a chain is given by its changes, count along the chain named.

To fix the notation:
T1: CD79b on the surface of human lymphoma cell lines (human, UniProt P40259 29-229)
T1 sequence (looked up): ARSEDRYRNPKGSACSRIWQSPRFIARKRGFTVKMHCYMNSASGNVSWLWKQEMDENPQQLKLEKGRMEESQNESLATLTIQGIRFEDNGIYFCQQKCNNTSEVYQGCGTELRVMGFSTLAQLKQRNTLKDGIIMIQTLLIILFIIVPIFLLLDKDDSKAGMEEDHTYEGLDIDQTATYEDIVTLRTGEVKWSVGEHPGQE

T2: recombinant human CD79b extracellular domain protein (human, UniProt P40259 29-159)
T2 construct: Bought protein; also called CD79b ECD; human CD79b-ECD
T2 sequence: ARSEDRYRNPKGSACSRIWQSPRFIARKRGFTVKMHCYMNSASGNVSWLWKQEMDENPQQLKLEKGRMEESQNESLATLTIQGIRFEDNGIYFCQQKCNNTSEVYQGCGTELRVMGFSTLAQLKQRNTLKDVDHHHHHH

B1: AS11254-ADC (other)
heavy: QVQLVQSGAEVKKPGASVKVSCKTSGNTFTSYGINWVKQAPGQGLEWMGEIFPRSGNIYYNEKFKGRVTITADKSTSTAYMELSSLRSEDTAVYYCAKGGTGDFDYWGQGTLVTVSS[human IgG1 constant region left out]
light: DVVMTQSPLSLPVTLGQPASISCRSSQNIVHSDGNTYLEWYQQRPGQSPRLLIYKVSFRLSGVPDRFSGSGSGTDFTLKISRVEAEDVGVYYCFQGSHVPWTFGGGTKVEIKRTVAAPSVFIFPPSDEQLKSGTASVVCLLNNFYPREAKVQWKVDNALQSGNSQESVTEQDSKDSTYSLSSTLTLSKADYEKHKVYACEVTHQGLSSPVTKSFNRGEC
modifications: drug conjugate made by the method of Example 3 (BMP-vcMMAE); positions not given
B2: AS11164-ADC (other)
heavy: B1 heavy with A16S, K38R, R67K
light: B1 light with V3L, R50K
modifications: drug conjugate made by the method of Example 3 (BMP-vcMMAE); positions not given
B3: AS11259-ADC (other)
heavy: B1 heavy with A16S, M48I
light: B1 light
modifications: drug conjugate made by the method of Example 3 (BMP-vcMMAE); positions not given
B4: AS11252-ADC (other)
heavy: B1 heavy with A16S, V20L, M48I
light: B1 light
modifications: drug conjugate made by the method of Example 3 (BMP-vcMMAE); positions not given
B5: AS11161-ADC (other)
heavy: B1 heavy with A16S, K38R, R67K
light: B1 light
modifications: drug conjugate made by the method of Example 3 (BMP-vcMMAE); positions not given
B6: AS11259-ADC-001 (other, DAR 4.0)
heavy: B1 heavy with A16S, M48I
light: B1 light
modifications: linker-drug 1 (BMP-vcMMAE) on cysteines freed by TCEP reduction; positions not given
notes: Antibody-drug conjugate of AS11259 (IgG1) with linker-drug 1; average DAR 4.0
B7: AS11259-ADC-011 (other, DAR 2.1)
heavy: B1 heavy with A16S, M48I
light: B1 light
modifications: linker-drug 10 on cysteines freed by TCEP reduction; positions not given
notes: Antibody-drug conjugate of AS11259 with linker-drug 10; average DAR 2.1
B8: AS11259-ADC-008 (other, DAR 4.1)
heavy: B1 heavy with A16S, M48I
light: B1 light
modifications: linker-drug 8 on cysteines freed by TCEP reduction; positions not given
notes: Antibody-drug conjugate of AS11259 with linker-drug 8; average DAR 4.1
B9: AS11259-ADC-006 (other, DAR 4.1)
heavy: B1 heavy with A16S, M48I
light: B1 light
modifications: linker-drug 6 on cysteines freed by TCEP reduction; positions not given
notes: Antibody-drug conjugate of AS11259 with linker-drug 6; average DAR 4.1
B10: AS11259-ADC-0012 (other, DAR 1.7)
heavy: B1 heavy with A16S, M48I
light: B1 light
modifications: linker-drug 1 (BMP-vcMMAE) on cysteines freed by partial reduction; positions not given; linker-drug 1 (BMP-vcMMAE) on cysteines freed by partial reduction (an average of two pairs of disulfide bonds reduced); positions not given
notes: average DAR 1.7; Printed once as AS11250-ADC-0012; also called AS11250-ADC-0012
B11: AS11259-ADC-007 (other)
heavy: B1 heavy with A16S, M48I
light: B1 light
modifications: linker-drug 7 on cysteines freed by TCEP reduction; positions not given
notes: Antibody-drug conjugate of AS11259 with linker-drug 7; DAR not detected
B12: AS11259-ADC-010 (other, DAR 4.0)
heavy: B1 heavy with A16S, M48I
light: B1 light
modifications: linker-drug 9 on cysteines freed by TCEP reduction; positions not given
notes: Antibody-drug conjugate of AS11259 with linker-drug 9; average DAR 4.0
B13: AS11259-ADC-004 (other, DAR 4.0)
heavy: B1 heavy with A16S, M48I
light: B1 light
modifications: linker-drug 4 on cysteines freed by TCEP reduction; positions not given
notes: Antibody-drug conjugate of AS11259 with linker-drug 4; average DAR 4.0
B14: AS11259-ADC-002 (other)
heavy: B1 heavy with A16S, M48I
light: B1 light
modifications: linker-drug 2 on cysteines freed by TCEP reduction; positions not given
notes: Antibody-drug conjugate of AS11259 with linker-drug 2; DAR not detected
B15: AS11259-ADC-003 (other)
heavy: B1 heavy with A16S, M48I
light: B1 light
modifications: linker-drug 3 on cysteines freed by TCEP reduction; positions not given
notes: Antibody-drug conjugate of AS11259 with linker-drug 3 (DM1 based); DAR not detected
B16: AS11259-ADC-005 (other, DAR 4.2)
heavy: B1 heavy with A16S, M48I
light: B1 light
modifications: linker-drug 5 on cysteines freed by TCEP reduction; positions not given
notes: Antibody-drug conjugate of AS11259 with linker-drug 5; average DAR 4.2

One assay concerns the target T1, CD79b on the surface of human lymphoma …. In words: cell-based or functional assay.
As to B1, the “Inhibitory effect on the lymphoma cell proliferation IC50, BJAB” value (from here on “Inhibitory effect … BJAB”) was 0.0154 mg/L; the “Inhibitory effect on the lymphoma cell proliferation IC50, DoHH2” value (shortened to “Inhibitory effect … DoHH2”) turned out to be 0.0086 mg/L; the “Inhibitory effect on the lymphoma cell proliferation IC50, Granta-519” value (“Inhibitory effect … Granta-519” for short) turned out to be 0.0477 mg/L; the “Inhibitory effect on the lymphoma cell proliferation IC50, Ramos” value (“Inhibitory effect … Ramos” for short) was 0.0083 mg/L. Also, the “Inhibitory effect on the lymphoma cell proliferation IC50, SU_DHL-4” value (“Inhibitory effect … SU_DHL-4” below) was 0.0165 mg/L; the “Inhibitory effect on the lymphoma cell proliferation IC50, U-698-M” value (from here on “Inhibitory effect … U-698-M”) was 0.0192 mg/L; the “Inhibitory effect on the lymphoma cell proliferation IC50, WSU-DLCL2” value (from here on “Inhibitory effect … WSU-DLCL2”) amounted to 0.024 mg/L.

For the molecule B2, the “Inhibitory effect … BJAB” value was 0.0153 mg/L; the “Inhibitory effect … DoHH2” value was 0.00917 mg/L; the “Inhibitory effect … Granta-519” value is 0.0486 mg/L; the “Inhibitory effect … Ramos” value was 0.0081 mg/L. For the same molecule, the “Inhibitory effect … SU_DHL-4” value was determined as 0.0176 mg/L; the “Inhibitory effect … U-698-M” value amounted to 0.0204 mg/L; the “Inhibitory effect … WSU-DLCL2” value is 0.0246 mg/L.

B3: the “Inhibitory effect … BJAB” value was determined as 0.0104 mg/L; the “Inhibitory effect … DoHH2” value was 0.0089 mg/L; the “Inhibitory effect … Granta-519” value was found to be 0.0334 mg/L; the “Inhibitory effect … Ramos” value was determined as 0.00485 mg/L. In addition, the “Inhibitory effect … SU_DHL-4” value turned out to be 0.016 mg/L; the “Inhibitory effect … U-698-M” value was 0.0215 mg/L; the “Inhibitory effect … WSU-DLCL2” value was 0.0165 mg/L.

Consider B4, for which the “Inhibitory effect … BJAB” value stood at 0.0116 mg/L; the “Inhibitory effect … DoHH2” value was determined as 0.00801 mg/L; the “Inhibitory effect … Granta-519” value is 0.0446 mg/L; the “Inhibitory effect … Ramos” value came out at 0.00478 mg/L. Further, the “Inhibitory effect … SU_DHL-4” value was 0.0142 mg/L; the “Inhibitory effect … U-698-M” value is 0.0248 mg/L; the “Inhibitory effect … WSU-DLCL2” value stood at 0.0209 mg/L.

Take B5: the “Inhibitory effect … BJAB” value turned out to be 0.0122 mg/L; the “Inhibitory effect … DoHH2” value was 0.006 mg/L; the “Inhibitory effect … Granta-519” value was found to be 0.0315 mg/L; the “Inhibitory effect … Ramos” value worked out at 0.00504 mg/L. For the same molecule, the “Inhibitory effect … SU_DHL-4” value worked out at 0.0159 mg/L; the “Inhibitory effect … U-698-M” value is 0.0188 mg/L; the “Inhibitory effect … WSU-DLCL2” value was found to be 0.0159 mg/L.

A further assay has the same target. Kind of assay: cell-based or functional assay. This is another data set of the same source.
On to B6, for which the “inhibition of cell proliferation IC50, Ramos” value (“inhibition” below) came to 0.0055 mg/L.

As to B7, the “inhibition” value was found to be 0.0102 mg/L.

As to B8, the “inhibition” value came to 0.0024 mg/L.

For B9, the “inhibition” value turned out to be 0.005 mg/L.

Turning to B10, the “inhibition” value is 0.0132 mg/L.

Regarding B11, the “inhibition” value is 0.0081 mg/L.

In the case of B12, the “inhibition” value was 0.0039 mg/L.

As for B13, the “inhibition” value turned out to be 0.0029 mg/L.

In the case of B14, the “inhibition” value turned out to be 0.0145 mg/L.

As for B15, the “inhibition” value came out at 0.0702 mg/L.

In the case of B16, the “inhibition” value came to 0.0052 mg/L.

The target of a further assay is T2, recombinant human CD79b extracellular …. Kind of assay: indirect ELISA, plate coated with CD79b antigen. As for the experimental part:
An ELISA anti-antibody was added to bind with the antibody or ADC antibody bound to the solid phase antigen, and unbound anti-antibody was removed by washing. Substrate solution was added, and then the optical density (OD) value at 450 nm/630 nm was read with a microplate reader T, based on which a curve was plotted, and the EC₅₀ was calculated.
On the technique in general: ELISA stands for enzyme-linked immunosorbent assay.
With B6, the EC50 worked out at 0.0317 mg/L.

In the case of B7, the EC50 was found to be 0.0236 mg/L.

B8: the EC50 is 0.029 mg/L.

As for B9, the EC50 is 0.0502 mg/L.

B10: the EC50 came out at 0.0314 mg/L.

On to B11, for which the EC50 was found to be 0.0629 mg/L.

Regarding B12, the EC50 came to 0.0232 mg/L.

Regarding B13, the EC50 was 0.0322 mg/L.

On to B14, for which the EC50 was 0.0241 mg/L.

Turning to B15, the EC50 turned out to be 0.0162 mg/L.

As to B16, the EC50 worked out at 0.0469 mg/L.

The term EC50 denotes the midpoint of the concentration-response curve.
